Where “and” joins values, the source holds several entries; their conditions need not be identical. Equal values may be shown once. Screen size: about 390,000 compounds; about 150 (0.038%) were called active. Inconclusive means that the source gave no clear call. Such entries were picked first, then a sample of the others. Calls come from the whole dose curve; as a rule, active = well fitted inhibition curve with a large enough effect; inconclusive = small, poorly fitted or top-dose-only effect; inactive = no such curve, though single readings can be large or run the other way. A potency beside an inconclusive call is a rough fit, not a confirmed value.
The compounds below were run against Regulator of G-protein signaling 4 (Homo sapiens) (UniProt P49798) (assay: Inhibitors of Regulator of G Protein Signaling (RGS) 4: qHTS). Conditions: Transcreener GDP fluorescence polarization, RGS4-accelerated GTP hydrolysis; series mostly up to 114 µM.
Chain of UniProt P49798 (P49798 whole entry, looked up): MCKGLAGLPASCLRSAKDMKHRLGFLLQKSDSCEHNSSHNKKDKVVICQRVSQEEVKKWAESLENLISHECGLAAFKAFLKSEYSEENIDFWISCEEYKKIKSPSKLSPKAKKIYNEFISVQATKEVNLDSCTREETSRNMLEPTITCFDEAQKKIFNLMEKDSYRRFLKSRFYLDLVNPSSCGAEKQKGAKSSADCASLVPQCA
Summary of the method: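 MLSMR compounds (23 nl, pin-transferred) preincubated 10 min at room temperature with a 500nM (2x) first reagent, then RGS4 at 900nM (2x) plus Transcreener GDP mix added; fluorescence polarization (620/688 nm) read before and after 90 min at 30 °C.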
In the case of `COc1cc(/C=C2\SC(=S)N(CC(=O)O)C2=O)ccc1OC(=O)c1ccco1`, the Potency was inconclusive: 56.2 µM [inhibitor, partial curve, poor fit]. With `COc1cc2sc(-c3ccc(S(C)(=O)=O)cc3)c(C(=O)NCc3ccc(C)o3)c2cc1OC` the Potency was inconclusive: 11.2 µM [inhibitor, full curve, poor fit]. For `Cc1cc(C)nc(N/N=C/c2sccc2C)n1`, the Potency was inconclusive: 31.6 µM [inhibitor, partial curve, poor fit]. In the case of `CCOC(=S)SCC(=O)N1CCc2cc(OC)ccc2C1C1C(=O)CCCC1=O` (stereo not given), the Potency was “inactive”. For `O=C(NC(=S)Nc1cccc2cc(O)ccc12)c1ccccc1Br`, the Potency was inconclusive: 50.1 µM [inhibitor, partial curve, poor fit]. For `COc1ccc(NC(=O)c2cc(Cl)ccc2Cl)c([N+](=O)[O-])c1`, the Potency was “inactive”. `O=C(NCc1ccccc1)c1sc(=S)n2c1[nH]c(=O)c1ccccc12` was tested, and the Potency was inconclusive: 89.1 µM [inhibitor, single point]. In the case of `Cc1coc2cc3oc(=O)c(CCC(=O)NC4CC4)c(C)c3cc12`, the Potency was “inactive”. In the case of `CN1CCN(NC(=O)c2cn(-c3ccccc3)nc2-c2cccc(Br)c2)CC1`, the Potency was inconclusive: 100 µM [inhibitor, single point]. For `COc1ccc(Nc2nc(N)nc(CN3CCOCC3)n2)cc1`, the Potency was inconclusive: 79.4 µM [inhibitor, partial curve, poor fit]. With `O=C(Oc1ccc(Br)cc1C(=S)N1CCOCC1)c1ccc(F)cc1` the Potency was inconclusive: 50.1 µM [inhibitor, partial curve, poor fit]. For `COc1ccc(C2C(C#N)=C(N)N(c3ncn[nH]3)C3=C2C(=O)CCC3)cc1` (stereo not given), the Potency was inconclusive: 56.2 µM [inhibitor, partial curve, poor fit]. With `CCOC(=O)c1ccc(NC(=O)Nc2c[nH]c(=O)[nH]c2=O)cc1` the Potency was inconclusive: 100 µM [inhibitor, single point]. `c1ccc2c(c1)ccc1[nH]c3c(c12)CCCC3` was tested, and the Potency was inconclusive: 89.1 µM [inhibitor, single point]. For `Cc1ccc(OCC(=O)N/N=C/C=C/c2ccco2)c(Br)c1`, the Potency was inconclusive: 56.2 µM [inhibitor, partial curve, poor fit]. With `COc1ccc(/C=C(/C(=O)c2ccc(Cl)cc2Cl)n2cncn2)cc1` the Potency was inconclusive: 79.4 µM [inhibitor, single point]. `O=C(/C=C/c1ccco1)NCC1(c2ccccc2)CCCC1` was tested, and the Potency was “inactive”. With `CCCOc1c(Br)cc(C(=O)OCC(=O)NC(=O)c2cccn2C)cc1OC` the Potency was inconclusive: 89.1 µM [inhibitor, single point]. With `CCc1cc(-c2n[nH]c(=S)n2-c2cccc(C)c2)cs1` the Potency was inconclusive: 89.1 µM [inhibitor, partial curve, poor fit]. In the case of `CC(C)c1ccc(/C=C/c2ccc(=O)n(C)n2)cc1`, the Potency was inconclusive: 79.4 µM [inhibitor, partial curve, poor fit]. `CCOC(=O)N1CCc2c(sc(NCc3cccc(F)c3)c2C(=O)Nc2ccccc2OCC)C1` was tested, and the Potency was inconclusive: 79.4 µM [inhibitor, partial curve, poor fit]. In the case of `O=C(CN1C(=O)/C(=C2/SC(=S)N(CCS(=O)(=O)O)C2=O)c2ccccc21)Nc1cccc(Br)c1`, the Potency was inconclusive: 79.4 µM [inhibitor, partial curve, poor fit]. In the case of `CCc1ccccc1N/N=C(/C)c1c(O)cc(C)oc1=O`, the Potency was inconclusive: 89.1 µM [inhibitor, partial curve, poor fit]. `COC(=O)C(=C/C(C)=C/c1cccs1)C(=O)OC` was tested, and the Potency was inconclusive: 79.4 µM [inhibitor, single point]. `O=S(=O)(/N=C(/Sc1ccccc1)c1ccccc1)c1ccc(Cl)cc1` was tested, and the Potency was inconclusive: 79.4 µM [inhibitor, single point]. In the case of `COC(=O)c1c(NC(=O)c2ccco2)sc(C(=O)N(C)C)c1C`, the Potency was inconclusive: 79.4 µM [inhibitor, partial curve, poor fit]. With `CN(Cc1ccccc1)C(=O)COC(=O)C12CC3CC(CC(Br)(C3)C1)C2` the Potency was inconclusive: 89.1 µM [inhibitor, single point]. `CCOc1ccc(Cl)cc1C1=CC(=O)C[C@H](c2ccc(OC)cc2)C1` was tested, and the Potency was “inactive”. `O=[N+]([O-])c1cc(CN2CCCC2)c2cccnc2c1O` was tested, and the Potency was inconclusive: 70.8 µM [inhibitor, partial curve, poor fit]. With `CCN1C(=O)/C(=C\C=C2/C=CC=CN2CC)SC1=S` the Potency was inconclusive: 50.1 µM [inhibitor, partial curve, poor fit]. For `Cc1ccc(CNC(=O)C2(C(F)(F)F)C/C(=C\Cc3ccccc3)CCCO2)o1` (stereo not given), the Potency was inconclusive: 50.1 µM [inhibitor, partial curve, poor fit] and inconclusive: 17.8 µM [inhibitor, full curve, poor fit]. For `COc1ccc(CCNc2nc(SCc3ccc(F)cc3)nc3ccccc23)cc1OC`, the Potency was “inactive”. With `COCC(C)NC(=O)c1cccc([N+](=O)[O-])c1` (stereo not given) the Potency was “inactive”. `C/C(CCc1oc2c(Br)cc(Br)cc2c1-c1ccc(C)o1)=N\O` was tested, and the Potency was inconclusive: 35.5 µM [inhibitor, partial curve, poor fit]. With `COc1cc(S(=O)(=O)NCc2ccccn2)ccc1Cl` the Potency was inconclusive: 28.2 µM [inhibitor, full curve, poor fit]. With `C=CCc1ccccc1OCCn1c(C2CC(=O)N(Cc3ccc(F)cc3)C2)nc2ccccc21` (stereo not given) the Potency was “inactive”. `COc1cc(C(=O)OCCCN2CCCN(CCCOC(=O)c3cc(OC)c(OC)c(OC)c3)CC2)cc(OC)c1OC` was tested, and the Potency was inconclusive: 18.9 µM [inhibitor, partial curve, poor fit]. With `CCn1nc(C)c(Br)c1-c1nc(CS(=O)(=O)c2ccc(F)cc2)no1` the Potency was “inactive”. For `Oc1c(Cl)cc(Cl)c2c1NCCC2`, the Potency was inconclusive: 35.5 µM [inhibitor, full curve, poor fit]. `CC1(C(=O)O)CC(C)(C(=O)O)CC(C)(C(=O)O)C1` (stereo not given) was tested, and the Potency was “inactive”. For `O=C1NN(c2cccc(Br)c2)C(=O)/C1=C/c1cccs1`, the Potency was “inactive”. `COc1ccccc1-n1c(=O)[nH]c2c(C(N)=O)nc(CC(C)C)nc21` was tested, and the Potency was “inactive”. `S=c1[nH]nc(-c2ccco2)n1/N=C/C=C/c1ccco1` was tested, and the Potency was inconclusive: 20 µM [inhibitor, full curve, poor fit]. `O=C(NCc1cccs1)c1nn(-c2ccccc2F)nc1CO` was tested, and the Potency was “inactive”. In the case of `O=S(=O)(/N=C(/Sc1ccc(Cl)cc1)c1ccccc1)c1ccccc1`, the Potency was inconclusive: 50.1 µM [inhibitor, partial curve, poor fit]. For `Cc1cc(C)c2nc(N3C(=O)C(O)=C(C(=O)c4ccco4)C3c3ccc(O)cc3)sc2c1` (stereo not given), the Potency was inconclusive: 31.6 µM [inhibitor, full curve, poor fit]. In the case of `C#CCCc1cscc1/C=[N+](\[O-])c1ccc(C(=O)OCC)cc1`, the Potency was inconclusive: 56.2 µM [inhibitor, partial curve, poor fit]. For `Nc1cccc(NC(=O)c2cccs2)c1`, the Potency was “inactive”. `CCOC(=O)c1cc(C#N)c(=S)[nH]c1C` was tested, and the Potency was inconclusive: 100 µM [inhibitor, partial curve, poor fit]. In the case of `COc1ccc(/C(C)=N/Nc2nc3ccccc3nc2C)cc1`, the Potency was “inactive”. With `O=S(=O)(c1ccccc1F)N1CCN(Cc2cc3c(cc2Br)OCCO3)CC1` the Potency was inconclusive: 100 µM [inhibitor, single point]. With `O=C(CSc1nnc(-c2ccccc2)o1)c1nnc(-c2ccccc2)o1` the Potency was inconclusive: 50.1 µM [inhibitor, partial curve, poor fit]. For `Nc1nonc1-c1nc2ccccc2n1CC(=O)N/N=C/c1ccc(-c2cccc(C(=O)O)c2)o1`, the Potency was inconclusive: 79.4 µM [inhibitor, partial curve, poor fit]. In the case of `COc1cc(NS(=O)(=O)c2ccc(NC(=S)NC(=O)/C=C/c3ccc(OC)c(OC)c3)cc2)ncn1`, the Potency was inconclusive: 50.1 µM [inhibitor, partial curve, poor fit]. `COc1ccc(CCN2C(=O)CN=C2Nc2ccc(F)cc2)cc1OC` was tested, and the Potency was inconclusive: 70.8 µM [inhibitor, single point]. For `Cc1ccc(O)c(/C=N/NC(=O)COc2ccc3c(C)cc(=O)oc3c2)c1`, the Potency was inconclusive: 17.8 µM [inhibitor, full curve, poor fit]. In the case of `O=C(Nc1ccc([N+](=O)[O-])cc1)Nc1nc(-c2ccc(Cl)s2)cs1`, the Potency was “inactive”. With `COc1ccc(-c2noc(CCC(=O)N3CCN(c4ccccc4OC)CC3)n2)cc1` the Potency was “inactive”. With `CCC(C)(C)N1CC(=O)N(Cc2ccccc2)C(c2ccc(OC)cc2)C1=O` (stereo not given) the Potency was “inactive”. In the case of `Cn1cccc1CC(=O)N/N=C/C=C/c1ccccc1`, the Potency was inconclusive: 89.1 µM [inhibitor, single point]. In the case of `CCOC(=O)c1ccc(S(=O)(=O)Nc2cc(S(=O)(=O)N3CCOCC3)ccc2O)cc1`, the Potency was inconclusive: 100 µM [inhibitor, partial curve, poor fit]. `COc1ccccc1-c1noc(-c2ccccc2C(=O)Nc2cccnc2)n1` was tested, and the Potency was inconclusive: 79.4 µM [inhibitor, single point]. With `O=C1C=C(c2ccccc2)C(=O)N1Nc1ccccc1` the Potency was inconclusive: 28.2 µM [inhibitor, full curve, poor fit]. With `O=C(Cn1ccsc1=NC(=O)C(F)(F)F)c1ccccc1` the Potency was “inactive”. For `CCOc1ccc(S(=O)(=O)N(C(=O)c2ccco2)c2cc3sc(=O)oc3c3ccccc23)cc1`, the Potency was inconclusive: 31.6 µM [inhibitor, full curve, poor fit].
Note: nearly all actives have a fitted effect of over 75% in size.
Potency is the fitted concentration of half-maximal effect; tags give direction and shape of the fitted curve.
